The list shows a part of the results, in another mix than the full data. The list includes weakly bound sequences.

For the assay, the target named is T1, GST-Nv-NF-kB (Cys allele) (UniProt E5G601).
T1 sequence: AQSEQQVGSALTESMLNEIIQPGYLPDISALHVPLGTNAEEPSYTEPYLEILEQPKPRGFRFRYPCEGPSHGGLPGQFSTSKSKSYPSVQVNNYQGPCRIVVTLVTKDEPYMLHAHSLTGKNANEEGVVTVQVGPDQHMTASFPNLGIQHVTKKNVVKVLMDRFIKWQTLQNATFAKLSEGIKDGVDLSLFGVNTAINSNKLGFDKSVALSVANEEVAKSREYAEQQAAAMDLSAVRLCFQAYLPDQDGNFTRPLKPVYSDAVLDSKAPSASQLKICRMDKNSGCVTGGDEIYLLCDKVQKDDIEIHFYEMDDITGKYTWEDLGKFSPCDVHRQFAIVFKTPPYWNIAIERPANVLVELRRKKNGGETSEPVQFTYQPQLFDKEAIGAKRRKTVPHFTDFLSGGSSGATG
In words: protein-binding microarray (PBM). Conditions: PBM: ~300 nM protein, 6 mM HEPES pH 7.8, 80 mM KCl, 0.5 mM EDTA, 0.5 mM EGTA, 6% glycerol, 35 ng/ul poly-dIdC, 1% milk, 1 h, room temperature; Ap Aiptasia and Nv Nematostella (sea anemones) / Co Capsaspora / Aq Amphimedon (sponge) / Dm Drosophila / Hu human; RHD is the Rel homology domain; high values mean tight binding; most listed sequences are background and not binding sites; double strand, one strand shown.
“CCGATTAACATCAAGGAATGTCCTGATGTTAATCGGGTCTTGATTCGCTTGACGCTGCTG”: the binding signal worked out at 0.663 z-score.

As for “CCGATTAACATCAAGGAGTTTCCTGATGTTAATCGGGTCTTGATTCGCTTGACGCTGCTG”, the binding signal is -0.138 z-score.

Sequence “CCGATTAACATCAGAGAATTTCCTGATGTTAATCGGGTCTTGATTCGCTTGACGCTGCTG” showed a binding signal of -0.33 z-score.

For “CCGATTAACATCACGGCATTTCCTGATGTTAATCGGGTCTTGATTCGCTTGACGCTGCTG”, the binding signal came out at 0.22 z-score.

The sequence “CCGATTAACATCAGGATTTGCCCTGATGTTAATCGGGTCTTGATTCGCTTGACGCTGCTG” showed a binding signal of 1.25 z-score.

As to “CCGATTAACATCAAGGAACTTCCTGATGTTAATCGGGTCTTGATTCGCTTGACGCTGCTG”, the binding signal is -0.463 z-score.

“CCGATTAACATCAAGGAATCTCCTGATGTTAATCGGGTCTTGATTCGCTTGACGCTGCTG”: the binding signal is -0.327 z-score.

“CCGATTAACATCAGGAATGTCCATGATGTTAATCGGGTCTTGATTCGCTTGACGCTGCTG” returned a binding signal of -0.289 z-score.

In the case of “CCGATTAACATCAAAAAATCTCCTGATGTTAATCGGGTCTTGATTCGCTTGACGCTGCTG”, the binding signal turned out to be 0.108 z-score.

In turn, “CCGATTAACATCACGGAAAGTACTGATGTTAATCGGGTCTTGATTCGCTTGACGCTGCTG” showed a binding signal of -0.496 z-score.

As for “CCGATTAACATCACGGACTGTCCTGATGTTAATCGGGTCTTGATTCGCTTGACGCTGCTG”, the binding signal amounted to 0.267 z-score.

Take “CCGATTAACATCAAGGGGGTTTCTGATGTTAATCGGGTCTTGATTCGCTTGACGCTGCTG”: the binding signal stood at 8.37 z-score.

Take “CCGATTAACATCACGGACTTTCCTGATGTTAATCGGGTCTTGATTCGCTTGACGCTGCTG”: the binding signal worked out at 0.376 z-score.

In turn, “CCGATTAACATCACGGCTTTTCCTGATGTTAATCGGGTCTTGATTCGCTTGACGCTGCTG” came in with a binding signal of -0.519 z-score.

Regarding “CCGATTAACATCAGGAATTTTCATGATGTTAATCGGGTCTTGATTCGCTTGACGCTGCTG”, the binding signal was 0.336 z-score.

As to “CCGATTAACATCAGAATTTCCGCTGATGTTAATCGGGTCTTGATTCGCTTGACGCTGCTG”, the binding signal was -0.155 z-score.

Turning to “CCGATTAACATCAACAAAATTCCTGATGTTAATCGGGTCTTGATTCGCTTGACGCTGCTG”, the binding signal was 0.251 z-score.

With “CCGATTAACATCATAATGGGAAATGATGTTAATCGGGTCTTGATTCGCTTGACGCTGCTG”, the binding signal was 2.83 z-score.

With “CCGATTAACATCAAAAATCCGGTTGATGTTAATCGGGTCTTGATTCGCTTGACGCTGCTG”, the binding signal came out at 0.0719 z-score.

“CCGATTAACATCAGGAATTTACCTGATGTTAATCGGGTCTTGATTCGCTTGACGCTGCTG”: the binding signal came to 3.18 z-score.

“CCGATTAACATCAGGAAATATCCTGATGTTAATCGGGTCTTGATTCGCTTGACGCTGCTG”: the binding signal stood at 0.347 z-score.

Sequence “CCGATTAACATCAGGTTATTCCATGATGTTAATCGGGTCTTGATTCGCTTGACGCTGCTG” showed a binding signal of 0.591 z-score.

Regarding “CCGATTAACATCAAAAATTCCTATGATGTTAATCGGGTCTTGATTCGCTTGACGCTGCTG”, the binding signal was -0.445 z-score.

For the sequence “CCGATTAACATCAAAATTTCCGCTGATGTTAATCGGGTCTTGATTCGCTTGACGCTGCTG”, the binding signal came to 0.281 z-score.

The sequence “CCGATTAACATCAAAATTTCCGTTGATGTTAATCGGGTCTTGATTCGCTTGACGCTGCTG” gave a binding signal of 0.00738 z-score.

Turning to “CCGATTAACATCAGCGGAAATCCTGATGTTAATCGGGTCTTGATTCGCTTGACGCTGCTG”, the binding signal is 0.294 z-score.

Take “CCGATTAACATCAGGACATTCCATGATGTTAATCGGGTCTTGATTCGCTTGACGCTGCTG”: the binding signal was -0.244 z-score.

With “CCGATTAACATCAAACCCTACTGTGATGTTAATCGGGTCTTGATTCGCTTGACGCTGCTG”, the binding signal amounted to 0.304 z-score.

For “CCGATTAACATCAGAGAAATTCCTGATGTTAATCGGGTCTTGATTCGCTTGACGCTGCTG”, the binding signal came to 0.353 z-score.

Consider “CCGATTAACATCAAGTACTTTCCTGATGTTAATCGGGTCTTGATTCGCTTGACGCTGCTG”, for which the binding signal is 0.246 z-score.

“CCGATTAACATCATGAAGACCCCTGATGTTAATCGGGTCTTGATTCGCTTGACGCTGCTG”: the binding signal worked out at 1.18 z-score.

For “CCGATTAACATCAGGAAATTTACTGATGTTAATCGGGTCTTGATTCGCTTGACGCTGCTG”, the binding signal is -0.141 z-score.

“CCGATTAACATCAGAAATGCCCATGATGTTAATCGGGTCTTGATTCGCTTGACGCTGCTG” displayed a binding signal of 0.948 z-score.

“CCGATTAACATCATGTTGGGAAATGATGTTAATCGGGTCTTGATTCGCTTGACGCTGCTG” showed a binding signal of 2.29 z-score.

In turn, “CCGATTAACATCAGGAAAAGTACTGATGTTAATCGGGTCTTGATTCGCTTGACGCTGCTG” displayed a binding signal of -0.259 z-score.

Take “CCGATTAACATCAGGAATCGCCCTGATGTTAATCGGGTCTTGATTCGCTTGACGCTGCTG”: the binding signal is 0.377 z-score.

“CCGATTAACATCATCCGCGGGAGTGATGTTAATCGGGTCTTGATTCGCTTGACGCTGCTG” gave a binding signal of 0.45 z-score.

On to “CCGATTAACATCAAAAATATTCCTGATGTTAATCGGGTCTTGATTCGCTTGACGCTGCTG”, for which the binding signal worked out at 0.481 z-score.

Sequence “CCGATTAACATCAGAAATTACCATGATGTTAATCGGGTCTTGATTCGCTTGACGCTGCTG” yielded a binding signal of 1.45 z-score.

“CCGATTAACATCAGAAACTTTCCTGATGTTAATCGGGTCTTGATTCGCTTGACGCTGCTG” showed a binding signal of 0.317 z-score.

(Values after publication PMC5700166.)
